From PubChem BioAssay AID588579 (National Center for Advancing Translational Sciences (NCATS), 2011) come the findings set out here.

The structures appear in SMILES notation. “And” between values parts separate entries of the source, which are not always exact repeats. Identical values can stand only once. Screen size: about 400,000 compounds; about 2,200 (0.55%) were called active. Inconclusive results (about 1%) are left out. Calls follow the shape of the dose curve; as a rule, active = well fitted inhibition curve with a large enough effect; inconclusive = small, poorly fitted or top-dose-only effect, or another doubt; inactive = no such curve, though single readings can be large or run the other way. This is a selection; strong and weak results do not stand in their true shares. Some compounds were tested as several samples or in several runs, with calls that do not always agree.
% is scaled to controls: 0 for no effect and ±100 for the full control effect; potency is read from the fitted curve at half-maximal effect.

For the assay, the target named is DNA polymerase kappa (Homo sapiens) (UniProt Q9UBT6). As to the kind of experiment: qHTS for Inhibitors of Polymerase Kappa. As to conditions: purified Pol kappa, fluorescent DNA synthesis assay, 10 min; series mostly up to 107 µM; activity, negative = inhibition: at the top concentration. The essentials: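 Pol kappa 10 nM + cpd, 15 min RT; start w/ substrate 50 nM final; fluorescence kinetic read, 0 and 10 min. Neg ctrl: buffer, no enzyme.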
Sequence of UniProt Q9UBT6 (Q9UBT6 whole entry, looked up): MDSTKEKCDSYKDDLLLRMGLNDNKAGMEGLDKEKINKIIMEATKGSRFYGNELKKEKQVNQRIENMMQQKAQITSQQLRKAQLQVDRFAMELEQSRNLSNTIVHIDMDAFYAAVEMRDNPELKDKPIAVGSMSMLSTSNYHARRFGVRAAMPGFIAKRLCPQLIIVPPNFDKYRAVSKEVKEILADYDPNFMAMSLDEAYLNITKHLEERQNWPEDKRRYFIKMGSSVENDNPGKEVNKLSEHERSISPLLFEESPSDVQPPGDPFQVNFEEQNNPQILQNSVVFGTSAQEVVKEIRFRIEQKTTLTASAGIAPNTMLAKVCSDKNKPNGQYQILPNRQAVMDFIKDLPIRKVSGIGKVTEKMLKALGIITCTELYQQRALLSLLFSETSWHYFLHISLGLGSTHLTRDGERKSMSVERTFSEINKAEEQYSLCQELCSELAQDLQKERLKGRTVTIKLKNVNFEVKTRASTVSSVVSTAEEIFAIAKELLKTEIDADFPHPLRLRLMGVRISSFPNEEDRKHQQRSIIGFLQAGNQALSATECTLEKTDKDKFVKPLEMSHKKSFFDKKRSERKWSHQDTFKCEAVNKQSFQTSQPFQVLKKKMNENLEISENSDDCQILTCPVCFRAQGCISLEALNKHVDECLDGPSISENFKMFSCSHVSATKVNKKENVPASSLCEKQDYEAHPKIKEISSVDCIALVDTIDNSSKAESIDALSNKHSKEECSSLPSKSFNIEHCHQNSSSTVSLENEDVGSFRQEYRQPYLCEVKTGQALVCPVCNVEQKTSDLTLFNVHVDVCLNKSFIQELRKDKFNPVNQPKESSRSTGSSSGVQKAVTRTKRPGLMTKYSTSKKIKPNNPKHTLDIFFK
As to `C[C@]12CC[C@@H]3c4ccc(O)cc4CC[C@H]3[C@@H]1CC[C@@H]2O`, the Potency result was “inactive”.

Regarding `O=C(OCCC12CC3CC(CC(C3)C1)C2)c1ccc(NCc2cc(O)ccc2O)cc1`, the Potency is active: 79.4 µM.

As to `O=C(O)c1cccc(-n2cccc2/C=C/[N+](=O)[O-])c1`, the Potency is active: 14.1 µM.

In the case of `COc1cc(C2Oc3cc(C4Oc5cc(O)cc(O)c5C(=O)C4O)ccc3OC2CO)ccc1O` (stereo not given), the Potency result was “inactive”.

In the case of `O=c1cc2oc3cc(O)c(O)cc3c(-c3ccccc3O)c-2cc1O`, the Potency is active: 4.47 µM.

In the case of `Cc1ccc(C)c(N2CCN(S(=O)(=O)c3csc(C(N)=O)c3)CC2)c1`, the “activity, negative = inhibition” value was inactive: -6.74%.

`OC[C@@H](O)C(O)[C@@H](O)CO` (stereo not given in full): the “activity, negative = inhibition” value is inactive: 14.8% [at 60.1 µM].

Take `COc1ccc(C(=O)N/C(=C/c2cccc3ccccc23)C(=O)NCCc2c[nH]c3ccccc23)cc1OC`: the “activity, negative = inhibition” value is inactive: -20.7%.

For `COc1ccc([C@H]2OCC3C2CO[C@@H]3c2ccc(OC)c(OC)c2)cc1OC` (stereo not given in full), the “activity, negative = inhibition” value is inactive: 15.4% [at 60.1 µM].

Take `O=[N+]([O-])c1ccc(-c2nc(-c3ccc(F)cc3)c(-c3ccncc3)[nH]2)cc1`: the “activity, negative = inhibition” value is inactive: -0.545% [at 60.1 µM].

Regarding `O=S1(=O)CCOC[C@H](c2ccccc2)N1Cc1cccc(Cl)c1`, the “activity, negative = inhibition” value was inactive: -2.79%.

`CC(=O)[C@@]1(O)CC[C@H]2[C@H]3C[C@@H](C)C4=CC(=O)C=C[C@]4(C)[C@@]3(F)[C@@H](O)C[C@]21C`: the activity, negative = inhibition is inactive: -4.29% [at 12 µM].

Regarding `O=C(O)c1cccc(-n2cccc2/C=N/O)c1`, the Potency was active: 35.5 µM.

Consider `CC(C)C[C@H](NC(=O)[C@H](CCCCN)NC(=O)[C@H](CCC(N)=O)NC(=O)[C@H](Cc1cnc[nH]1)NC(=O)[C@H](Cc1cnc[nH]1)NC(=O)[C@@H](N)C(C)C)C(=O)N[C@H](C(=O)N[C@@H](Cc1ccccc1)C(=O)N[C@@H](Cc1ccccc1)C(=O)N[C@@H](C)C(=O)N[C@@H](CCC(=O)O)C(=O)N[C@@H](CC(=O)O)C(=O)N[C@H](C(=O)NCC(=O)N[C@@H](CO)C(=O)N[C@@H](CC(N)=O)C(=O)N[C@@H](CCCCN)C(=O)O)C(C)C)C(C)C`, for which the “activity, negative = inhibition” value is inactive: 19.2% [at 60.1 µM].

Regarding `O=C(OC[C@H]1O[C@@H](OC(=O)c2cc(O)c(O)c(OC(=O)c3cc(O)c(O)c(O)c3)c2)[C@H](OC(=O)c2cc(O)c(O)c(OC(=O)c3cc(O)c(O)c(O)c3)c2)[C@@H](OC(=O)c2cc(O)c(O)c(OC(=O)c3cc(O)c(O)c(O)c3)c2)[C@@H]1OC(=O)c1cc(O)c(O)c(OC(=O)c2cc(O)c(O)c(O)c2)c1)c1cc(O)c(O)c(OC(=O)c2cc(O)c(O)c(O)c2)c1`, the “activity, negative = inhibition” value is inactive: -99.1%.

With `CCCCC(=O)O[C@H]1CC[C@H]2[C@@H]3CCc4cc(O)ccc4[C@H]3CC[C@]12C`, the “activity, negative = inhibition” value is inactive: 0%.

With `OCCOCCN1CCN([C@@H](c2ccccc2)c2ccc(Cl)cc2)CC1`, the activity, negative = inhibition is inactive: 0.0815% [at 12 µM].

For `CC1(C)S[C@@H]2[C@H](NC(=O)[C@H](N)c3ccc(O)cc3)C(=O)N2[C@H]1C(=O)O`, the Potency is active: 50.1 µM.

Regarding `O=c1cc(-c2ccccc2O)oc2c(O)c(O)ccc12`, the Potency is active: 0.891 µM.

Consider `NC(=O)[C@H]1CCCN1C(=O)[C@H](Cc1cnc[nH]1)NC(=O)[C@@H]1CCC(=O)N1`, for which the activity, negative = inhibition was inactive: -15.1% [at 12 µM].

Take `O=C1CC(c2ccco2)CC2=C1C(c1ccccc1)n1nc(C(F)(F)F)nc1N2` (stereo not given): the “activity, negative = inhibition” value was inactive: -8.5%.

For the compound `Cc1ccc(-c2csc(NC(=O)/C=C/c3ccco3)c2C(=O)O)cc1`, the Potency was active: 50.1 µM.

Turning to `COc1ccc(CNC(=O)Cn2c(=O)cc(C)c3c(C)nn(-c4cccc(Cl)c4C)c32)cc1`, the “activity, negative = inhibition” value is inactive: 23.2%.

As to `O=C(O)c1cc(O)c2c(c1)[C@H]([C@H]1c3cc(C(=O)O)cc(O)c3C(=O)c3c(O[C@@H]4O[C@H](CO)[C@@H](O)[C@H](O)[C@H]4O)cccc31)c1cccc(OC3O[C@H](CO)[C@@H](O)[C@H](O)[C@H]3O)c1C2=O` (stereo not given in full), the Potency was active: 0.708 µM.

As for `COc1ccc([C@@H]2CC(=O)c3c(O)cc(O[C@@H]4OC(CO[C@@H]5OC(C)[C@H](O)[C@@H](O)[C@H]5O)[C@@H](O)[C@H](O)[C@H]4O)cc3O2)cc1O` (stereo not given in full), the “activity, negative = inhibition” value was inactive: 2.26%.

Take `OCC1=C[C@@H](O)C2C=CO[C@@H](O[C@@H]3O[C@H](CO)[C@@H](O)[C@H](O)[C@H]3O)C12` (stereo not given in full): the “activity, negative = inhibition” value is inactive: 7.63%.

Regarding `CO/N=C(\C(=O)N[C@@H]1C(=O)N2C(C(=O)O)=C(COC(N)=O)CS[C@@H]12)c1ccco1`, the activity, negative = inhibition was inactive: -4.73% [at 12 µM].

Consider `O=c1cc(-c2ccc(O)cc2)oc2cc(O)c([C@@H]3O[C@H](CO)[C@@H](O)[C@H](O)[C@H]3O)c(O)c12`, for which the Potency entry is “inactive”.

For `Cc1onc(-c2c(Cl)cccc2Cl)c1C(=O)N[C@@H]1C(=O)N2[C@@H]1SC(C)(C)[C@@H]2C(=O)O`, the Potency entry is “inactive”.

Turning to `C=C1c2cccc(OC)c2O[C@H](C(=O)OCC)[C@@H]1CC(CC)CCCC` (stereo not given in full), the “activity, negative = inhibition” value is inactive: -12.2%.

With `Cc1cc(C(C)(C)C)c(O)c(C)c1CC1=NCCN1`, the Potency result was “inactive”.

As for `CCOC(=O)[C@@H]1[C@H]2COc3ccccc3[C@@H]2N2C(=O)N(c3ccc(F)cc3)C(=O)[C@@]12C`, the “activity, negative = inhibition” value was inactive: 11.7%.

As to `COC(=O)CSc1ccc2nnc(CCNS(=O)(=O)c3ccccc3)n2n1`, the “activity, negative = inhibition” value was inactive: -4.56%.

`COc1cc2cc(Oc3ccc4ccc(=O)oc4c3)c(=O)oc2cc1O`: the “activity, negative = inhibition” value was inactive: -7.58%.

As to `COc1ccc([C@@H]2CC(=O)c3c(O)cc(O[C@@H]4O[C@H](CO[C@@H]5O[C@@H](C)[C@H](O)[C@@H](O)[C@H]5O)[C@@H](O)[C@H](O)[C@H]4O)cc3O2)cc1O`, the “activity, negative = inhibition” value was inactive: -27.2%.

On to `O=C(/C=C/c1ccc(Br)o1)OCc1nc2ccsc2c(=O)[nH]1`, for which the Potency is active: 10 µM.

Take `CSc1ccc2c(c1)C(N1CCN(C)CC1)Cc1ccccc1S2` (stereo not given): the Potency entry is “inactive”.

For the compound `COC(=O)[C@H]1[C@H]2C[C@H]3c4[nH]c5ccccc5c4CCN3C[C@@H]2CC[C@@H]1O`, the Potency entry was “inactive”.

As for `C[C@@]12CC[C@@H]3c4ccc(O)cc4CC[C@H]3[C@H]1CC[C@H]2O`, the activity, negative = inhibition was inactive: 1.66% [at 12 µM].

As to `CC[C@@]1([C@@H]2O[C@@H]([C@H]3O[C@@](O)(CO)[C@H](C)C[C@@H]3C)C[C@@H]2C)CC[C@@H]([C@]2(C)CCC3(C[C@H](O)[C@@H](C)[C@@H]([C@@H](C)[C@@H](OC)[C@H](C)C(=O)O)O3)O2)O1` (stereo not given in full), the “activity, negative = inhibition” value is inactive: 15.2% [at 60.1 µM].

As for `CC(C)CCCC(C)C1CCC2C3CC=C4CC(O)CC[C@@]4(C)C3CC[C@@]12C` (stereo not given in full), the “activity, negative = inhibition” value was inactive: -6.35% [at 60.1 µM].

In the case of `CC(C)C[C@H](NC(=O)C1OC1C(=O)O)C(=O)NCCCCN=C(N)N` (stereo not given in full), the “activity, negative = inhibition” value is inactive: -3.79% [at 60.1 µM].

As to `CC(=O)c1c(O)c(C)c(O)c2c1OC1=CC(=O)C(C(C)=O)C(=O)[C@@]12C` (stereo not given in full), the Potency entry was “inactive”.

Take `Cc1nnc(SCC2=C(C(=O)O)N3C(=O)C(NC(=O)COc4ccccc4)C3SC2)s1` (stereo not given): the Potency is active: 79.4 µM.

Turning to `C=C[C@@]1(C)CC(=O)[C@]2(O)[C@@]3(C)[C@@H](O)CCC(C)(C)[C@@H]3[C@H](O)[C@H](OC(C)=O)[C@@]2(C)O1`, the Potency result is “inactive”.

Regarding `Cc1cccc(-c2n[nH]c(=S)n2/N=C/C=C/c2ccco2)c1`, the Potency was active: 44.7 µM.

In the case of `CN(C)c1ccc(/C=C/c2ccc3c4ccccc4ccc3[n+]2-c2ccccc2)cc1`, the “activity, negative = inhibition” value is inactive: -6.22%.

For the compound `CCCCC(CC)COC(=O)C(C#N)=C(c1ccccc1)c1ccccc1` (stereo not given), the “activity, negative = inhibition” value was inactive: -22.9%.

`O=C1C=CC(=O)N1c1cccc2cccnc12`: the Potency was active: 89.1 µM.

`CCCCCCCCCCCCCCCCCCc1ccc(C(=O)/C=C\C(=O)O)cc1`: the Potency is active: 12.6 µM.

Take `O=C(Cc1coc2cc3c(cc12)CCC3)OCc1cc(=O)n2c(n1)sc1ccccc12`: the Potency was active: 89.1 µM.

As for `O=C1CN(/N=C/c2ccc([N+](=O)[O-])o2)C(=O)N1`, the Potency result was “inactive”.

As to `NC(=NCCCCCCN=C(N)/N=C(\N)Nc1ccc(Cl)cc1)/N=C(\N)Nc1ccc(Cl)cc1`, the Potency entry was “inactive”.

As to `CC(C)c1ccc(Nc2nnc(SCC(=O)c3nnc(-c4ccccc4)o3)s2)cc1`, the Potency is active: 79.4 µM.

Turning to `COc1c(-c2ccccc2)oc2c(ccc3occc32)c1=O`, the “activity, negative = inhibition” value was inactive: -8.33%.

For `CCOc1ccc(CCNC(=O)c2nc(-c3cccc(F)c3)n3c2CCCCC3)cc1OCC`, the Potency was active: 89.1 µM.

As to `CC(C)[C@H]1c2ccc(F)cc2CC[C@@]1(CCN(C)CCCc1nc2ccccc2[nH]1)OC(=O)C1CC1`, the “activity, negative = inhibition” value was inactive: -3.21%.

For `O=c1c(O[C@@H]2O[C@H](CO)C(O)C2O)c(-c2ccc(O)c(O)c2)oc2cc(O)cc(O)c12` (stereo not given in full), the Potency was active: 25.1 µM.

Take `CC1(O)CCC(C(C)(C)O)CC1` (stereo not given): the Potency result is “inactive”.

As to `COc1cc2oc(=O)cc(-c3cccc(-c4ccc(C(F)(F)F)cc4)c3)c2c(OC)c1OC`, the “activity, negative = inhibition” value was inactive: 2.78%.

For `CC(C)c1c(O)ccc2c1CC[C@H]1C(C)(C)CCC[C@]21C`, the “activity, negative = inhibition” value is inactive: -6.09%.

As to `CCCC1O[C@@H]2C[C@H]3[C@@H]4CCC5=CC(=O)C=C[C@]5(C)[C@H]4[C@@H](O)C[C@]3(C)[C@]2(C(=O)CO)O1` (stereo not given in full), the Potency result is “inactive”.

Take `CC(C(=O)O)c1cccc(C(=O)c2ccccc2)c1` (stereo not given): the Potency entry was “inactive”.

For the compound `O=C1CSC(=S)N1/N=C/c1ccc(O)c([N+](=O)[O-])c1`, the Potency was active: 28.2 µM.

As to `NC(=O)CSc1oc(-c2ccco2)nc1S(=O)(=O)c1ccc(Br)cc1`, the “activity, negative = inhibition” value is inactive: -19.7%.

With `O=S(=O)(c1ccccc1)N(CC(F)(F)F)c1ccc(C(O)(C(F)(F)F)C(F)(F)F)cc1`, the “activity, negative = inhibition” value was inactive: -17.1% [at 60.1 µM].

Regarding `NC(=O)C1CCCN1C(=O)C(Cc1cnc[nH]1)NC(=O)C1CCC(=O)N1` (stereo not given), the “activity, negative = inhibition” value was inactive: 11.6% [at 60.1 µM].

Take `Cc1cccc(C(=O)Nc2cc3c(cc2N2CCCCC2)n(C)c(=O)c(=O)n3C)c1`: the “activity, negative = inhibition” value was inactive: 28.5%.

As to `Cc1nc(N=Nc2cc([N+](=O)[O-])ccc2Cl)c(COP(=O)(O)O)c(C=O)c1O`, the Potency was active: 26.7 µM.

Consider `COc1ccc(C(=O)CC(=O)c2ccc(C(C)(C)C)cc2)cc1`, for which the “activity, negative = inhibition” value was inactive: 3.94%.

Consider `O=C(c1ccc2c(c1)OCO2)N1CCCCC1`, for which the Potency result is “inactive”.

Take `COc1ccc(C(=O)c2ccccc2)c(O)c1`: the Potency entry was “inactive”.

`CC(C)NCC(O)c1ccc(O)c(O)c1` (stereo not given): the Potency result was “inactive”.

With `COc1cc(/C=N/N2C(=O)CSC2=S)ccc1O`, the Potency was active: 79.4 µM.

On to `NC[C@@H](O)c1ccc(O)c(O)c1`, for which the Potency is active: 3.16 µM and active: 11.9 µM.
